# This is one part of the list. No stated cut-off is given here; in the data, active = 3.2 or more and inactive = the rest. Most of these values are background signal.
# B1: TP53_Y234_N239S_YF (peptide)
# chain: CTTIHYNFMCS
# B2: TP53_Y234_N239I_YF (peptide)
# chain: CTTIHYNFMCI
# B3: TP53_Y234_N235T (peptide)
# chain: CTTIHYTYMCN
# B4: TP53_Y327_L323R (peptide)
# chain: PRDGEYFTLQI
# B5: TP53_Y234_Y234F_YF (peptide)
# chain: CTTIHFNFMCN
# B6: TP53_Y234_T230I_YF (peptide)
# chain: CITIHYNFMCN
# B7: TP53_Y234_Y234N_YF (peptide)
# chain: CTTIHNNFMCN
# B8: TP53_Y234_N239D (peptide)
# chain: CTTIHYNYMCD
# B9: TP53_Y234_T231I_YF (peptide)
# chain: CTIIHYNFMCN
# B10: TP53_Y234_T230P (peptide)
# chain: CPTIHYNYMCN
# B11: TP53_Y234_N239K (peptide)
# chain: CTTIHYNYMCK
# B12: TP53_Y234_Y234K_YF (peptide)
# chain: CTTIHKNFMCN
# B13: TP53_Y234_Y236S (peptide)
# chain: CTTIHYNSMCN
# B14: TP53_Y234_N239S (peptide)
# chain: CTTIHYNYMCS
# B15: TP53_Y234_T230N_YF (peptide)
# chain: CNTIHYNFMCN
# B16: TP53_Y327_F328L (peptide)
# chain: PLDGEYLTLQI
# B17: TP53_Y327_F328S (peptide)
# chain: PLDGEYSTLQI
# B18: TP53_Y234_Y236C (peptide)
# chain: CTTIHYNCMCN
# B19: TP53_Y327_D324Y_YF (peptide)
# chain: PLFGEYFTLQI
# Biological target: SHP2 C-SH2 domain E139D
# Assay: enrichment score (SH2-bound / input frequency) (ratio); bacterial display of known human phosphotyrosine sites (pTyr-Var adds point mutants) read by sequencing; higher = stronger binding; tyrosines were phosphorylated by kinases first
# Details: peptide library: pTyr-Var
# 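Further: displayed peptides selected on beads carrying the immobilized SH2 domain, with library peptides lacking any tyrosine serving as negative controls.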
row,Binder,enrichment score
1,B1,active: 4.81
2,B2,active: 4.11
3,B3,active: 3.95
4,B4,inactive: 0.632
5,B5,active: 3.86
6,B6,active: 3.41
7,B7,inactive: 2.23
8,B8,active: 3.68
9,B9,active: 3.57
10,B10,inactive: 2.91
11,B11,active: 3.79
12,B12,inactive: 0.756
13,B13,inactive: 1.85
14,B14,active: 5.24
15,B15,active: 3.28
16,B16,inactive: 0.473
17,B17,inactive: 0.576
18,B18,inactive: 1.23
19,B19,inactive: 0.83

# Biological target: SHP2 C-SH2 domain wild-type
# Assay: as above
# Details: peptide library: pTyr-Var
row,Binder,enrichment score
1,B1,active: 4.59
2,B2,active: 3.69
3,B3,active: 4.27
4,B4,inactive: 0.742
5,B5,inactive: 3.05
6,B6,inactive: 2.87
7,B7,inactive: 2.16
8,B8,active: 5.55
9,B9,active: 3.24
10,B10,active: 4.6
11,B11,active: 4.1
12,B12,inactive: 0.84
13,B13,inactive: 2.04
14,B14,active: 6.05
15,B15,inactive: 2.82
16,B16,inactive: 0.656
17,B17,inactive: 0.725
18,B18,inactive: 1.13
19,B19,inactive: 1.2

# Biological target: SHP2 N-SH2 domain L43F
# Assay: as above
# Details: peptide library: pTyr-Var
row,Binder,enrichment score
1,B1,active: 4.49
2,B2,active: 3.55
3,B3,active: 3.71
4,B4,inactive: 0.685
5,B5,inactive: 3.13
6,B6,inactive: 2.64
7,B7,inactive: 2.16
8,B8,inactive: 2.77
9,B9,inactive: 3.13
10,B10,inactive: 1.99
11,B11,active: 3.3
12,B12,inactive: 0.837
13,B13,inactive: 2.07
14,B14,active: 3.69
15,B15,inactive: 2.65
16,B16,inactive: 0.848
17,B17,inactive: 0.567
18,B18,inactive: 1.19
19,B19,inactive: 1.15

# Biological target: SHP2 N-SH2 domain T42A
# Assay: as above
# Details: peptide library: pTyr-Var
row,Binder,enrichment score
1,B1,active: 3.58
2,B2,inactive: 2.85
3,B3,active: 3.58
4,B4,inactive: 0.422
5,B5,inactive: 2.64
6,B6,inactive: 2.34
7,B7,inactive: 1.83
8,B8,inactive: 2.54
9,B9,inactive: 2.53
10,B10,inactive: 1.58
11,B11,inactive: 2.42
12,B12,inactive: 0.792
13,B13,inactive: 1.69
14,B14,inactive: 3
15,B15,inactive: 2.45
16,B16,inactive: 0.532
17,B17,inactive: 0.541
18,B18,inactive: 1.01
19,B19,inactive: 1.01

# Biological target: SHP2 N-SH2 domain T52S
# Assay: as above
# Details: peptide library: pTyr-Var
row,Binder,enrichment score
1,B1,active: 4.32
2,B2,active: 3.24
3,B3,active: 3.41
4,B4,inactive: 0.534
5,B5,inactive: 2.74
6,B6,inactive: 2.5
7,B7,inactive: 1.86
8,B8,inactive: 2.78
9,B9,inactive: 3.01
10,B10,inactive: 2.26
11,B11,inactive: 2.94
12,B12,inactive: 0.787
13,B13,inactive: 2.25
14,B14,active: 3.75
15,B15,inactive: 3.01
16,B16,inactive: 0.73
17,B17,inactive: 0.77
18,B18,inactive: 0.951
19,B19,inactive: 0.805

# Biological target: SHP2 N-SH2 domain wild-type
# Assay: as above
# Details: peptide library: pTyr-Var
row,Binder,enrichment score
1,B1,active: 4.34
2,B2,inactive: 3.13
3,B3,active: 3.46
4,B4,inactive: 0.731
5,B5,inactive: 3.04
6,B6,inactive: 2.96
7,B7,inactive: 1.84
8,B8,inactive: 2.23
9,B9,inactive: 3.05
10,B10,inactive: 1.79
11,B11,active: 3.28
12,B12,inactive: 0.884
13,B13,inactive: 1.56
14,B14,inactive: 3.12
15,B15,inactive: 2.46
16,B16,inactive: 0.635
17,B17,inactive: 0.621
18,B18,inactive: 1.27
19,B19,inactive: 1.12

# — the supplement of paper PMC10369915
